From patent publication US11058699B2, “Method and compositions for inhibition of double stranded DNA viruses” (WISCONSIN ALUMNI RESEARCH FOUNDATION, priority 2008, dated 2021)

System: HPV16 LCR-driven RL containing pseudovirions hpv16wpA-RL
Test: hpv16wpA-RL pseudovirion infectivity assay (Renilla luciferase) in HaCaT cells
Assay type: cell-based
Settings: for HPV infection in cells kept arrested: HaCaT cells treated 24 hours before hpv16wpA-RL virions added, block maintained

Structure (SMILES) | HPV infection in cells kept arrested | inhibitory effect on HPV infection (HaCaT cells, different concentrations of monastrol)
C[C@@]1(CO)[C@H](O)CC[C@@]2(C)[C@H]1CC[C@H]1C[C@@H]3C[C@@]12CC[C@]3(O)CO [aphidicolin] | significantly and consistently inhibited | 
COc1cc([C@@H]2c3cc4c(cc3[C@@H](O[C@@H]3O[C@@H]5CO[C@@H](C)O[C@H]5[C@H](O)[C@H]3O)[C@H]3COC(=O)[C@H]23)OCO4)cc(OC)c1O [etoposide] | significantly and consistently inhibited | 
CCOC(=O)C1=C(C)NC(=S)NC1c1cccc(O)c1 (stereo not drawn) [monastrol] |  | no inhibitory effect
